Data on 79 compounds can be found in the supplement of paper PMC10600219.

Structures can show the parent of a compound that is named as a salt. The full ranking holds about 2,800 compounds; the median of “cell viability relative to vehicle” is about 0.98, and the lowest 2% start at about 0.45. This is one part of the list.

The subject of this test is NCI-H2228 alectinib-DTP. In words: cell viability relative to vehicle (fraction of vehicle); NCI-H2228 is an ALK-positive lung cancer line and DTP means drug-tolerant persister; higher = less growth inhibition. As to conditions: 100 nM; treatment time 6 days. The method in brief: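 Each value is viability relative to vehicle-treated cells, measured as ATP with the CellTiter-Glo 3D Cell Viability Assay. Parental NCI-H2228 cells and drug-tolerant persisters (1000 nM targeted drug, 13 days) in 384-well plates received the 3114-agent TargetMol anti-cancer compound library at 100 nM, or DMSO, and were read 6 days later.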
`COc1ccc(CC(C)(C)NC[C@H](O)c2cc(O)cc3c2OCC(=O)N3)cc1` [Olodaterol] displayed a cell viability of 1.01. `CN(C)CCOC(c1ccccc1)c1ccccc1` [Diphenhydramine hydrochloride] had a cell viability of 1.01. The same measure for `CN1CCN(C(=O)C2C(C(=O)O)[C@H]3CC[C@@H]2O3)CC1` (some centres undefined): 1.01; for `CN(C)CC/C=C1/c2ccccc2Sc2ccc(Cl)cc21` [Chlorprothixene]: 0.945. Take `Cn1cc(CNCC2CCN(c3ncc(C(=O)NO)cn3)CC2)c2ccccc21` [Quisinostat]: the cell viability was found to be 0.358. Compound `CC(=O)[C@H]1CC[C@H]2[C@@H]3CCC4=CC(=O)CC[C@]4(C)[C@H]3CC[C@]12C` [Progesterone] showed a cell viability of 1.09.

For `O=C(NO)c1cnc(NC2(c3ccccc3)CC2)nc1`, the cell viability was 1.01. As for `CCN(CC)C(=O)c1cccc(C)c1` [N,N-Diethyl-m-toluamide], the figure is 1; as for `O=c1[nH]c(=S)[nH]c(-c2ccccc2)c1Cc1c(O)ccc2ccccc12` [Cambinol], 1.04.

Consider `CCN(CC)C(=O)c1cccnc1` [Nikethamide], for which the cell viability is 1.08.

`CC(C)(C)n1nc(Cc2cccc3ccccc23)c2c(N)ncnc21` displayed a cell viability of 0.853.

Compound `COc1ccc(C(=C2C(=O)Nc3ccccc32)c2ccc(OC)cc2)cc1` returned a cell viability of 0.929. Regarding `CCCN(CCC)S(=O)(=O)c1ccc(C(=O)O)cc1` [Probenecid], the cell viability amounted to 1.07.

Take `C[C@]12CC[C@@H]3c4ccc(O)cc4CC[C@H]3[C@@H]1CC[C@@H]2O` [Estradiol]: the cell viability was found to be 1.1.

With `CCNC(=O)c1[nH]nc(-c2cc(Cl)c(O)cc2O)c1-c1ccc(OC)cc1`, the cell viability came out at 1.14.

Consider `CNC(=O)CNc1cnc2ccc(-c3ccc(OC)c(OC)c3)cc2n1`, for which the cell viability is 1.08.

Turning to `C[C@H](NC(=O)/C(C#N)=C/c1cccc(Br)n1)c1ccccc1`, the cell viability stood at 1.04.

Consider `C[C@@H]1CC[C@@]2(NC1)O[C@H]1C[C@H]3[C@@H]4CC=C5C[C@@H](O[C@@H]6O[C@H](CO)[C@H](O)[C@H](O[C@@H]7O[C@H](CO)[C@@H](O)[C@H](O)[C@H]7O)[C@H]6O[C@@H]6O[C@@H](C)[C@H](O)[C@@H](O)[C@H]6O)CC[C@]5(C)[C@H]4CC[C@]3(C)[C@H]1[C@@H]2C` [Solasonine], for which the cell viability stood at 1.2. As for `CCN(CC)CC(O)CNc1ccc(NCC2CO2)c2c1C(=O)c1ccccc1C2=O` (centres undefined), the figure is 0.831. As for `c1ccc(-c2[nH]ncc2-c2ccnc3ccccc23)nc1`, the figure is 1.17. `N[C@@H](CCC(=O)N[C@@H](CS)C(=O)NCC(=O)O)C(=O)O` [Glutathione] gave a cell viability of 1.12. The same measure for `C#Cc1cccc(Nc2ncnc3cc4c(cc23)OCCOCCOCCO4)c1` [Icotinib]: 0.96. The same measure for `C=CC(=O)Nc1cc(Nc2nccc(-c3cn(C)c4ccccc34)n2)c(OC)cc1N(C)CCN(C)C` [Osimertinib mesylate]: 0.858.

Regarding `C=CC(=O)Nc1cc(Nc2nccc(-c3cn(C)c4ccccc34)n2)c(OC)cc1N(C)CCN(C)C` [Osimertinib], the cell viability came out at 0.742. The same measure for `Cc1ccc(NCCCc2ccccc2)c(N)c1`: 1.03; for `CCc1c(C)[nH]c2c1C(=O)C(CN1CCOCC1)CC2` (centres undefined) [Molindone hydrochloride]: 1.14; for `CC(C)(NS(=O)(=O)c1ccc2c(Cl)cnc(N=C(N)N)c2c1)C(=O)O`: 1.04. As for `O=[N+]([O-])c1cncn1CCN1CCOCC1` [Nimorazole], the figure is 0.869; as for `C=CC(=O)Nc1cc(Nc2nccc(-c3c[nH]c4ccccc34)n2)c(OC)cc1N(C)CCN(C)C`, 0.541; as for `O=C(O)c1ccc(-c2c[nH]c3ncc(-c4ccccc4)cc23)cc1C1CCCC1`, 1.04. In turn, `Cc1ncc(CO)c(CO)c1O` [Metadoxine] had a cell viability of 0.888.

The compound `Cc1ncc(CO)c(CO)c1O` [Pyridoxine] registered a cell viability of 1.13. `O=C(N1CCCC1)n1ccnn1` returned a cell viability of 0.961. The same measure for `Cc1cc(Nc2ncc3c(n2)N(C)C(=O)N(c2cc(NC(=O)c4cccc(C(F)(F)F)c4)ccc2C)C3)n(C)n1` [Pluripotin]: 0.301. The compound `N=C(N)NS(=O)(=O)c1ccc(N)cc1` [Sulfaguanidine] yielded a cell viability of 1.06. The same measure for `CSCC1CN(/N=C/c2ccc([N+](=O)[O-])o2)C(=O)O1` (centres undefined) [Nifuratel]: 0.881.

The compound `O=C(Nc1nc2cccc(-c3ccc(CN4CCS(=O)(=O)CC4)cc3)n2n1)C1CC1` [Filgotinib] yielded a cell viability of 1.03. The same measure for `COc1ccc2ccc(=O)oc2c1CC=C(C)C` [Osthole]: 0.976; for `CNS(=O)(=O)CCc1ccc2[nH]cc(C3CCN(C)CC3)c2c1` [Naratriptan]: 1.04; for `CC(=O)Oc1ccccc1C(=O)O` [Aspirin]: 1.15. The compound `Nc1nc(NC2CC2)cc(-c2cccc(Cl)c2Cl)n1` registered a cell viability of 0.955. The same measure for `CC(C)=CC[C@@H](O)C1=CC(=O)c2c(O)ccc(O)c2C1=O` (racemic) [(±)-Shikonin]: 1.02. On to `CC(C)=CCC[C@](C)(O[C@@H]1O[C@H](CO)[C@@H](O)[C@H](O)[C@H]1O)[C@H]1CC[C@]2(C)[C@@H]1[C@H](O)C[C@@H]1[C@@]3(C)CC[C@H](O)C(C)(C)[C@@H]3[C@@H](O[C@@H]3O[C@H](CO)[C@@H](O)[C@H](O)[C@H]3O[C@@H]3O[C@@H](C)[C@H](O)[C@@H](O)[C@H]3O)C[C@]12C` [Ginsenoside Re], for which the cell viability turned out to be 0.852. The same measure for `CC1=C(/C=C/C(C)=C/C=C/C(C)=C/C(=O)O)C(C)(C)CCC1` [Tretinoin]: 0.87; for `C[C@]12CC[C@H](O)CC1=CC[C@@H]1[C@@H]2CC[C@]2(C)C(n3cnc4ccccc43)=CC[C@@H]12` [Galeterone]: 0.91; for `C[C@H](NP(=O)(OC[C@H]1O[C@@H](n2ccc(N)nc2=O)C(F)(F)[C@@H]1O)Oc1ccccc1)C(=O)OCc1ccccc1` (some centres undefined) [Acelarin]: 0.775. The same measure for `O=C(NO)c1cccc(C(=O)NCCc2ccccc2)c1`: 1.01; for `Nc1ccc(/C=C/C(=O)NCc2cc3cc(-c4ccc(C(=O)N5CCC(F)(F)CC5)cc4)cc(-c4ccc(F)cc4)c3o2)cn1`: 1.25. The same measure for `N=C(N)Nc1ccc(C(=O)Oc2ccc3cc(C(=N)N)ccc3c2)cc1` [Nafamostat mesylate]: 0.929; for `CC(C)n1nc(-c2ccc3oc(N)nc3c2)c2c(N)ncnc21`: 0.37. Turning to `CN1C[C@@H]2C[C@H]1CN2c1cc2c(cc1F)c(=O)c(C(=O)O)cn2C1CC1` [Danofloxacin mesylate], the cell viability amounted to 0.947. Turning to `N[C@@H](Cc1c[nH]c2ccc(O)cc12)C(=O)O` [L-5-Hydroxytryptophan], the cell viability turned out to be 1.05.

`CC#CC(=O)N1CCC[C@H]1c1nc(-c2ccc(C(=O)Nc3ccccn3)cc2)c2c(N)nccn12` [Acalabrutinib] displayed a cell viability of 1.05. In turn, `CC(=O)Nc1nc2c(Oc3cc(-c4ccc(C(F)(F)F)cc4)ncn3)cccc2s1` had a cell viability of 1.12.

`N#CSc1cc(SC#N)c(N)nc1N` returned a cell viability of 0.783. The same measure for `CC(=O)O[C@]1(C(C)=O)CC[C@H]2[C@@H]3CCC4=CC(=O)CCC4=C3[C@@H](c3ccc(N(C)C)cc3)C[C@@]21C` [Ulipristal acetate]: 0.997. The same measure for `CCCCc1nc2cc(/C=C/C(=O)NO)ccc2n1CCN(CC)CC` [Pracinostat]: 0.977; for `O=C(O)/C=C/c1ccc(O)c(O)c1` [Caffeic Acid]: 0.958; for `CC1(C)CC(=O)c2c(C(F)(F)F)nn(-c3ccc(C(N)=O)c(N[C@H]4CC[C@H](O)CC4)c3)c2C1`: 0.491.

Compound `COc1c2c(cc3c1-c1c(cc4c(c1OC)OCO4)C[C@H](C)[C@H](C)C3)OCO2` [Schisandrin C] yielded a cell viability of 1.11. As to `COc1cc2nc(N(C)CCCNC(=O)C3CCCO3)nc(N)c2cc1OC` (centres undefined) [Alfuzosin hydrochloride], the cell viability was found to be 1.18. For the compound `Clc1ccc(Cn2c(CN3CCCC3)nc3ccccc32)cc1` [Clemizole], the cell viability turned out to be 0.828. As for `Clc1ccc(CO/N=C(\Cn2ccnc2)c2ccc(Cl)cc2Cl)c(Cl)c1` [Oxiconazole nitrate], the figure is 1.04.

As to `COc1ccc(-c2ccc3ncc4c(c3c2)n(-c2ccc(N3CCNCC3)c(C(F)(F)F)c2)c(=O)n4C)cn1`, the cell viability came to 0.373. The compound `O=C(Nc1ccc(C(O)(C(F)(F)F)C(F)(F)F)cc1)c1ccc(C(F)(F)F)cc1` had a cell viability of 0.963. As for `CC(=O)O[C@]1(C(C)=O)CC[C@H]2[C@@H]3C=C(Cl)C4=CC(=O)[C@@H]5C[C@@H]5[C@]4(C)[C@H]3CC[C@@]21C` [Cyproterone acetate], the figure is 0.913; as for `CC(C)c1cc(-c2n[nH]c(=O)n2-c2ccc3c(ccn3C)c2)c(O)cc1O` [Ganetespib], 0.508; as for `N[C@H]1C[C@@H]1c1ccc(-c2cccc(O)c2)cc1`, 1.01. As for `CCCCNc1ncc2c(-c3ccc(CN4CCN(C)CC4)cc3)cn(C3CCC(O)CC3)c2n1` (centres undefined), the figure is 0.738; as for `O=C(O)COCCN1CCN(C(c2ccccc2)c2ccc(Cl)cc2)CC1` (centres undefined) [Cetirizine dihydrochloride], 1.19. Compound `C=C1C[C@@]2(O)O[C@@]3(C[C@H]2C(C)C)[C@@H](C)CC[C@@H]13` [Curcumol] displayed a cell viability of 0.962.

In turn, `C=CC(=O)Nc1cccc(Nc2nc(Nc3ccc(Oc4ccnc(C(=O)NC)c4)cc3)ncc2F)c1` showed a cell viability of 0.962. As for `CCCSc1nc(N[C@@H]2C[C@H]2c2ccc(F)c(F)c2)c2nnn([C@@H]3C[C@H](OCCO)[C@@H](O)[C@H]3O)c2n1` [Ticagrelor], the figure is 1.19.

`N#Cc1ccc(-c2c(-c3ncn[nH]3)sc(N3CCOCC3)c2C#N)c(F)c1` showed a cell viability of 0.788. In turn, `c1ccc(C2CN3CCSC3=N2)cc1` (centres undefined) [Tetramisole hydrochloride] yielded a cell viability of 1.05. Take `COC(=O)c1cc(O)c(O)c(O)c1` [Methyl gallate]: the cell viability came to 1.07.

In the case of `COc1cc2c(cc1OC)[C@@H](Cc1ccc(Oc3cc(C[C@@H]4c5cc(OC)c(OC)cc5CCN4C)ccc3O)cc1)N(C)CC2` [Dauricine], the cell viability was found to be 1.05. As for `Cn1c(=O)c2nc[nH]c2n(C)c1=O` [Theophylline], the cell viability worked out at 1.13. The same measure for `CC(=O)O[C@H](CC=C(C)C)C1=CC(=O)c2c(O)ccc(O)c2C1=O` [Acetyl shikonin]: 1.05.
